# In the supplement of paper PMC8728848:
# This is one part of the list.
# Assays:
# Assay in all cases: glycan array binding signal (z-score within array); higher = stronger binding
# Conditions in all cases: glycan notation: IUPAC condensed, linker removed
# [1] = biological target: GlcNAc(b1-4)GlcNAc(b1-4)GlcNAc(b1-4)GlcNAc(b1-4)GlcNAc
# How it was run: (§1)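 The binding signal is a Z-score computed within each array and averaged over linkers. Arrays of the same protein sequence at different concentrations or buffers were also averaged together. Data originate from 3228 arrays in the Consortium for Functional Glycomics database, kept only where the protein sequence was available.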
# [2] = biological target: GlcNAc(b1-4)GlcNAc(b1-4)GlcNAc(b1-4)GlcNAc(b1-4)GlcNAc(b1-4)GlcNAc
# How it was run: as §1
# [3] = biological target: GlcNAc(b1-4)[GlcNAc(b1-6)]GalNAc
# How it was run: as §1
# [4] = biological target: GlcNAc(b1-6)Gal(b1-4)GlcNAc
# How it was run: as §1
# GlcNAc(b1-6)GalNAc = biological target: GlcNAc(b1-6)GalNAc
# How it was run: as §1
# [5] = biological target: GlcNAc6S(b1-3)Gal(b1-4)GlcNAc
# How it was run: as §1
# Kdn(a2-3)Gal(b1-3)GalNAc = biological target: Kdn(a2-3)Gal(b1-3)GalNAc
# How it was run: as §1
# Kdn(a2-3)Gal(b1-3)GlcNAc = biological target: Kdn(a2-3)Gal(b1-3)GlcNAc
# How it was run: as §1
# Kdn(a2-3)Gal(b1-4)Glc = biological target: Kdn(a2-3)Gal(b1-4)Glc
# How it was run: as §1
# Kdn(a2-3)Gal(b1-4)GlcNAc = biological target: Kdn(a2-3)Gal(b1-4)GlcNAc
# How it was run: as §1
# [6] = biological target: Kdn(a2-3)Gal(b1-4)[Fuc(a1-3)]GlcNAc
# How it was run: as §1
# Kdn(a2-6)Gal(b1-4)GlcNAc = biological target: Kdn(a2-6)Gal(b1-4)GlcNAc
# How it was run: as §1
# [7] = biological target: Man(a1-2)Man(a1-2)Man(a1-3)Man
# How it was run: as §1
# [8] = biological target: Man(a1-2)Man(a1-2)Man(a1-6)[Man(a1-3)]Man
# How it was run: as §1
# Man(a1-2)Man(a1-3)Man = biological target: Man(a1-2)Man(a1-3)Man
# How it was run: as §1
# [9] = biological target: Man(a1-2)Man(a1-3)[Man(a1-2)Man(a1-6)]Man
# How it was run: as §1
# [10] = biological target: Man(a1-2)Man(a1-3)[Man(a1-2)Man(a1-6)]Man(a1-6)[Man(a1-2)Man(a1-2)Man(a1-3)]Man
# How it was run: as §1
# [11] = biological target: Man(a1-2)Man(a1-3)[Man(a1-2)Man(a1-6)]Man(a1-6)[Man(a1-2)Man(a1-2)Man(a1-3)]Man(b1-4)GlcNAc(b1-4)GlcNAc
# How it was run: as §1
# [12] = biological target: Man(a1-2)Man(a1-3)[Man(a1-6)]Man(a1-6)[Man(a1-2)Man(a1-3)]Man(b1-4)GlcNAc(b1-4)GlcNAc
# How it was run: as §1
# [13] = biological target: Man(a1-2)Man(a1-6)[Man(a1-3)]Man(a1-6)[Man(a1-2)Man(a1-2)Man(a1-3)]Man
# How it was run: as §1
# [14] = biological target: Man(a1-2)Man(a1-6)[Man(a1-3)]Man(a1-6)[Man(a1-2)Man(a1-2)Man(a1-3)]Man(b1-4)GlcNAc(b1-4)GlcNAc
# How it was run: as §1
# Man(a1-3)[Man(a1-6)]Man = biological target: Man(a1-3)[Man(a1-6)]Man
# How it was run: as §1
# [15] = biological target: Man(a1-3)[Man(a1-6)]Man(a1-6)[Man(a1-2)Man(a1-3)]Man(b1-4)GlcNAc(b1-4)GlcNAc
# How it was run: as §1
# [16] = biological target: Man(a1-3)[Man(a1-6)]Man(a1-6)[Man(a1-3)]Man
# How it was run: as §1
# [17] = biological target: Man(a1-3)[Man(a1-6)]Man(a1-6)[Man(a1-3)]Man(b1-4)GlcNAc(b1-4)GlcNAc
# How it was run: as §1
# [18] = biological target: Man(a1-3)[Man(a1-6)]Man(b1-4)GlcNAc(b1-4)GlcNAc
# How it was run: as §1
# [19] = biological target: Man(a1-3)[Man(a1-6)]Man(b1-4)GlcNAc(b1-4)[Fuc(a1-6)]GlcNAc
# How it was run: as §1
# Man(a1-6)Man = biological target: Man(a1-6)Man
# How it was run: as §1
# Man(b1-4)GlcNAc = biological target: Man(b1-4)GlcNAc
# How it was run: as §1
# MurNAc(b1-4)GlcNAc = biological target: MurNAc(b1-4)GlcNAc
# How it was run: as §1
# Neu5Ac(a2-3)Gal = biological target: Neu5Ac(a2-3)Gal
# How it was run: as §1
# [20] = biological target: Neu5Ac(a2-3)Gal(b1-3)GalNAc
# How it was run: as §1
# [21] = biological target: Neu5Ac(a2-3)Gal(b1-3)GalNAc(b1-3)Gal(a1-4)Gal(b1-4)Glc
# How it was run: as §1
# [22] = biological target: Neu5Ac(a2-3)Gal(b1-3)GalNAc(b1-4)Gal(b1-4)Glc
# How it was run: as §1
# [23] = biological target: Neu5Ac(a2-3)Gal(b1-3)GalNAc(b1-4)[Neu5Ac(a2-3)]Gal(b1-4)Glc
# How it was run: as §1
# [24] = biological target: Neu5Ac(a2-3)Gal(b1-3)GalNAc(b1-4)[Neu5Ac(a2-8)Neu5Ac(a2-3)]Gal(b1-4)Glc
# How it was run: as §1
# [25] = biological target: Neu5Ac(a2-3)Gal(b1-3)GalNAc6S
# How it was run: as §1
# [26] = biological target: Neu5Ac(a2-3)Gal(b1-3)GlcNAc
# How it was run: as §1
# [27] = biological target: Neu5Ac(a2-3)Gal(b1-3)GlcNAc(b1-2)Man
# How it was run: as §1
# [28] = biological target: Neu5Ac(a2-3)Gal(b1-3)GlcNAc(b1-2)Man(a1-3)[GlcNAc(b1-4)][Neu5Ac(a2-3)Gal(b1-3)GlcNAc(b1-2)Man(a1-6)]Man(b1-4)GlcNAc(b1-4)GlcNAc
# How it was run: as §1
# [29] = biological target: Neu5Ac(a2-3)Gal(b1-3)GlcNAc(b1-2)Man(a1-3)[Neu5Ac(a2-3)Gal(b1-3)GlcNAc(b1-2)Man(a1-6)]Man(b1-4)GlcNAc(b1-4)GlcNAc
# How it was run: as §1
# [30] = biological target: Neu5Ac(a2-3)Gal(b1-3)GlcNAc(b1-2)[Neu5Ac(a2-3)Gal(b1-3)GlcNAc(b1-4)]Man(a1-6)[Neu5Ac(a2-3)Gal(b1-3)GlcNAc(b1-2)Man(a1-3)]Man(b1-4)GlcNAc(b1-4)GlcNAc
# How it was run: as §1
# [31] = biological target: Neu5Ac(a2-3)Gal(b1-3)GlcNAc(b1-3)Gal(b1-3)GlcNAc
# How it was run: as §1
# [32] = biological target: Neu5Ac(a2-3)Gal(b1-3)GlcNAc(b1-3)Gal(b1-4)GlcNAc
# How it was run: as §1
# [33] = biological target: Neu5Ac(a2-3)Gal(b1-3)GlcNAc(b1-3)GalNAc
# How it was run: as §1
binder,measurement,setting,value
"Cp ZmpB (Clostridium perfringens), Q0TR08 (protein) MNKRKIAAIILATMITNLSATTIDVLAQELNTKNNSKVEVSHDDESHQARVSKFDLYNSDKLDAYNQEFQVSRSNIKSINNNGGKYNSSTIDKAIDGNLETHWETGKPNDANFTNEVVVTFNEITNIDRIVYSARRDSARGKGFAKEFEIYASLKDEGDDFNLVSSGEYTESTRDLVEIKFNPTDFKRLKFKFKKADQNWASAAEFMFYKEDKLNEKFNGLFTDSSMNKVSEEFNTLEKLNAFENELKDHPIYDLYKEGLNNARAILTETSENPTKATLGQITYNLNDDYNNQYRMPYKNIKAIKNNGRHYAAQNIEKAIDNDVNTYWETGTLNSSSFNNEVEVEFNDLVTLDRIVYGSRQSDLKGFAEEVYIYASRTSKGDTYKLVATGAHEATKGLVEAKFEPTEFKRVKFKFKKSKQNSATLNELMFYKPDEVYSSIPKLFTDGTMSELSEEFNSLEKINAFKEKAKNHPLYNDFNETIELAESLISNPRKEDVLELEMRGDSISEAKKRKVWNFQDWQITGLSARAGDKITVYVDVAEGDPTPTLLYKQSLTQHGGATSFQLKPGKNEITIPEINYESNGIPKDVIQGGDLFFTNYKSDSQKRAPKVRIEGASKYPVFILGKSDENEVMKELEAYVEKIKAEPKTTPNIFAVSSNKSLEFVQATYALDWYKKNNKTPKYTAEQWDQYIADAMGFWGFDNSKDVNSDFNFRIMPMVKNLSGGAFMNAGNGVIGIRPGNQDAILAANKGWGVAHELGHNFDTGGRTIVEVTNNMMPLFFESKYKTKTRITDQNIWENNTYPKVGLDDYSNNELYNKADSTHLAQLAPLWQLYLYDNTFYGKFERQFRERDFGNKNREDIYKSWVVAASDAMELDLTEFFARHGIRVDDKVKEDLAKYPKPDKKIYYLNDLAMNYKGDGFTENAKVSVSTSGSNGNIKLSFSVDDENKDNILGYEIRRDGKYVGFTSNDSFVDTKSNLDEDGVYVVTPYDRKLNTLNPIEVNALQPTLSVNPVITLALGEEFNEEEYIVAKDIKGNSLSESVKVKSSNVNTSKVGEYEVLYSLEDSKGNEYTKTSKVNVVSRKEYMSDLTPKQSSNGWGTVRKDKSISGGVIGLTRDGDFVDYNKGLGLHSNAEYVYDLEGKDYDYFESYVGVDKAMSSRPASSVIFKVLVDGEEKFNSGVMRSTTPQKYVKVDVKNAKELKLIVNDAGDGDSSDHASFGDAKLATLSSKPIIKGENLAYSMDEKVDLMKGITATDIEDGNITSKVQIKSSDFVEGKSGIFTVVYSVTDSDGLTSECSRTIAVTDKETQLSDLNWKSATIGSGSVRKDRAVSGNQIRLLNEDNSVETFAKGIGTHSYSEIVYNSEGYDIFDTWVGIDRHVADKKVSSVKFKVYVDGELKAETDVMRIDTPKKRLVVDVRNSKEIKLVVDVADNGNNWDHADWADAKFRNLAEYDASELNKAIEEAKKLDLNNYTEESSEALKNAISKGEEALLSKDKETINSALEELNKEMNSLVKVDLNAVINIPDKYLLKSIQNQLNKTGDITLGDMYSLTTLTLSGVEDLTGLENAKNLETLNMDYNEVKDLRPLSKLKKLNTLNAQEQFIAAGELKPSNGKVIGDSKVYNREGKNVAKTIRVVDKNGNTILEQDAKDEFTINTKDLSSGLYGVHVLFEDEGFSGVMFYLFNV",glycan array binding signal (z-score),[1],-0.381
same,glycan array binding signal (z-score),[2],-0.483
same,glycan array binding signal (z-score),[3],-0.328
same,glycan array binding signal (z-score),[4],-0.356
same,glycan array binding signal (z-score),GlcNAc(b1-6)GalNAc,-0.177
same,glycan array binding signal (z-score),[5],-0.26
same,glycan array binding signal (z-score),Kdn(a2-3)Gal(b1-3)GalNAc,0.269
same,glycan array binding signal (z-score),Kdn(a2-3)Gal(b1-3)GlcNAc,0.081
same,glycan array binding signal (z-score),Kdn(a2-3)Gal(b1-4)Glc,-0.245
same,glycan array binding signal (z-score),Kdn(a2-3)Gal(b1-4)GlcNAc,-0.16
same,glycan array binding signal (z-score),[6],-0.322
same,glycan array binding signal (z-score),Kdn(a2-6)Gal(b1-4)GlcNAc,0.166
same,glycan array binding signal (z-score),[7],-0.029
same,glycan array binding signal (z-score),[8],0.001
same,glycan array binding signal (z-score),Man(a1-2)Man(a1-3)Man,-0.177
same,glycan array binding signal (z-score),[9],-0.245
same,glycan array binding signal (z-score),[10],-0.49
same,glycan array binding signal (z-score),[11],-0.276
same,glycan array binding signal (z-score),[12],-0.217
same,glycan array binding signal (z-score),[13],-0.405
same,glycan array binding signal (z-score),[14],-0.058
same,glycan array binding signal (z-score),Man(a1-3)[Man(a1-6)]Man,-0.117
same,glycan array binding signal (z-score),[15],-0.062
same,glycan array binding signal (z-score),[16],-0.053
same,glycan array binding signal (z-score),[17],-0.114
same,glycan array binding signal (z-score),[18],-0.046
same,glycan array binding signal (z-score),[19],-0.391
same,glycan array binding signal (z-score),Man(a1-6)Man,0.521
same,glycan array binding signal (z-score),Man(b1-4)GlcNAc,-0.23
same,glycan array binding signal (z-score),MurNAc(b1-4)GlcNAc,-0.274
same,glycan array binding signal (z-score),Neu5Ac(a2-3)Gal,-0.384
same,glycan array binding signal (z-score),[20],-0.016
same,glycan array binding signal (z-score),[21],0.032
same,glycan array binding signal (z-score),[22],0.164
same,glycan array binding signal (z-score),[23],1.03
same,glycan array binding signal (z-score),[24],-0.24
same,glycan array binding signal (z-score),[25],-0.457
same,glycan array binding signal (z-score),[26],0.112
same,glycan array binding signal (z-score),[27],-0.142
same,glycan array binding signal (z-score),[28],-0.1
same,glycan array binding signal (z-score),[29],0.896
same,glycan array binding signal (z-score),[30],0.01
same,glycan array binding signal (z-score),[31],-0.131
same,glycan array binding signal (z-score),[32],-0.218
same,glycan array binding signal (z-score),[33],-0.372
